Paper PMC11532494 (Nature Communications, 2024)
Several values for one entry are separate records, joined by “and”; a condition that tells them apart may be missing. Equal entries are not always repeated. Where two headings read alike, the source gives them in different places.

Legend:
[1] = molecular target: RwDmhA (1b) (Rhizorhabdus wittichii, UniProt A0A067XIQ6); assay type: biochemical; details: for % residual activity: individual replicates
[2] = molecular target: T1, PsApaH (4) (Pseudomonas sp. M30-35, UniProt A0A1Y0KY79); assay: Inhibitor screening assay (10 µM or 1 µM); details: for % residual activity / % residual activity, mean: PsApaH (4); for % residual activity: individual replicates
T1 sequence (A0A1Y0KY79 1-342 limits assumed): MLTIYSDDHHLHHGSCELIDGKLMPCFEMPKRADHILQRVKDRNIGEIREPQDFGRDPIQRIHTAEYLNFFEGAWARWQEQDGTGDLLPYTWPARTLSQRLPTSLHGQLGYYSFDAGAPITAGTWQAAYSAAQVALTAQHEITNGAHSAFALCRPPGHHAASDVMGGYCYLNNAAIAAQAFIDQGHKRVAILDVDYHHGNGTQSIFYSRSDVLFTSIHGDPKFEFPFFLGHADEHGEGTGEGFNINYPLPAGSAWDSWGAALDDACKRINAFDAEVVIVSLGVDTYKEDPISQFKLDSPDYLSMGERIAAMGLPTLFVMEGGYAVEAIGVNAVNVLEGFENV

[3] = molecular target: T2, BsAcuC (2c) (Bacillus subtilis, UniProt P39067); assay: Inhibitor screening assay (10 µM or 1 µM); assay type: biochemical
T2 construct: made in house; host or cells: E. coli BL21 (DE3)
T2 sequence (P39067 1-387): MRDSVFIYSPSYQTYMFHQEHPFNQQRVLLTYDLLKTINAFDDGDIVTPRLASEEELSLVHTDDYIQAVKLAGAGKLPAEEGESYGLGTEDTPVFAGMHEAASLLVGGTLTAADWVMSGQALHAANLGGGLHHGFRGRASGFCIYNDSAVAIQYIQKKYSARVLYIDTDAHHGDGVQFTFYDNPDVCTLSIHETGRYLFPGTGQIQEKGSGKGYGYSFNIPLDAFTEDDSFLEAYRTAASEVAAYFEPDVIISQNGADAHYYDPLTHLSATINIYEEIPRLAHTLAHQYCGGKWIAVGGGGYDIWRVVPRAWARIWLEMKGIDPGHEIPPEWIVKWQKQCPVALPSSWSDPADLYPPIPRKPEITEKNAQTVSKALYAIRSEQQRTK
Source text: Data was transformed to relative enzyme activity (%) compared to control wells without inhibitors.

[4] = tested on: VsHdaH (1b); assay type: biochemical, Vibrio sp.; details: for % residual activity: individual replicates
Chain of VsHdaH (1b) (A0A2N0XRJ0 1-372): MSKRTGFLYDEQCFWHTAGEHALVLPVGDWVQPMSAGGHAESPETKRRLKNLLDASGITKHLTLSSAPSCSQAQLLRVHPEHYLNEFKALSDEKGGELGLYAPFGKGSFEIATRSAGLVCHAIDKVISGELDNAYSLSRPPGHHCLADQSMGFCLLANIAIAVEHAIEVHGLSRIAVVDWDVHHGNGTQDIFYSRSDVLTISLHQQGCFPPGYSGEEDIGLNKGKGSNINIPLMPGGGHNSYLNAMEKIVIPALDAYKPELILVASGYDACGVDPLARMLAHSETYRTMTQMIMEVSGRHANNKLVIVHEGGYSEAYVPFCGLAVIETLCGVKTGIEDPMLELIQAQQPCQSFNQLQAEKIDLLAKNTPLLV

[5] = molecular target: KpHdaH (1b) (Klebsiella pneumoniae, UniProt A0A377Z5F6); assay type: biochemical; details: for % residual activity: individual replicates
Chain of KpHdaH (1b) (A0A377Z5F6 1-371): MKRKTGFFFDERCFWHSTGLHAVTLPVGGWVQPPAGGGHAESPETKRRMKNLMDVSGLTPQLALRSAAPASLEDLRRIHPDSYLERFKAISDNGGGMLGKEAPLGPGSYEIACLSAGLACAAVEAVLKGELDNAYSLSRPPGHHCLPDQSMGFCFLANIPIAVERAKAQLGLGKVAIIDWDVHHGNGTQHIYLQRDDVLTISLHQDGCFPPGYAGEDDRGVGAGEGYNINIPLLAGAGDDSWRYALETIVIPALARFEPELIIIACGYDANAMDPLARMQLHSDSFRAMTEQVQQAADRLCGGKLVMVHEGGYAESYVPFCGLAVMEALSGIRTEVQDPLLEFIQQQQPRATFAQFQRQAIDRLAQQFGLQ

[6] = molecular target: LcApaH (3) (Legionella cherrii, UniProt A0A0W0SGS1); assay: biochemical
Chain of LcApaH (3) (A0A0W0SGS1 1-425): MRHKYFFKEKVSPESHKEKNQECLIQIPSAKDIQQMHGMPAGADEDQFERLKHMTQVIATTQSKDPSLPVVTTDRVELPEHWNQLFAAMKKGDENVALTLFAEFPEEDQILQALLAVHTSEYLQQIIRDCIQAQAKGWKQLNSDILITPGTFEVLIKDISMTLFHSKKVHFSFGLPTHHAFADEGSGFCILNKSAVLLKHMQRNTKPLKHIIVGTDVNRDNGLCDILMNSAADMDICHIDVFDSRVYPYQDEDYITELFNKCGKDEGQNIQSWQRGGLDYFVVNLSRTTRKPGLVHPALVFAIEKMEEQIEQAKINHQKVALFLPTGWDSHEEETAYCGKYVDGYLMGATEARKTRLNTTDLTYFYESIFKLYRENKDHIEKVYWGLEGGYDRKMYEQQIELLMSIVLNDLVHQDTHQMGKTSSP

[7] = molecular target: T1, PsApaH (4); assay: Dose-response inhibition assay; details: for % residual activity, means: mean; for % residual activity: single measurement
[8] = 1 µM inhibitor, single measurements (two columns), 40 µM LGKac, 60 min, 37 °C
[9] = 10 µM inhibitor, single measurements (two columns), 40 µM LGKac, 60 min, 37 °C

Chain of RwDmhA (1b) (A0A067XIQ6 1-369): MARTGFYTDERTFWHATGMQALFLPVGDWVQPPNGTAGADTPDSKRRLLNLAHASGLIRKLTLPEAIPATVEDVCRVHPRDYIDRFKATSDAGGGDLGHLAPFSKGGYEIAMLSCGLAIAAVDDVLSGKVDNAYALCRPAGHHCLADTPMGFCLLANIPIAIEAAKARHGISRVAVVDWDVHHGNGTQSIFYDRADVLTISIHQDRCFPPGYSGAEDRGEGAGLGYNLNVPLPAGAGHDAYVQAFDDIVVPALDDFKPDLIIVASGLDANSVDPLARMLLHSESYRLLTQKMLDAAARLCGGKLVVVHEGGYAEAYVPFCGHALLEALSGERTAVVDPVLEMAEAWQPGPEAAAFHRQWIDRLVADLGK

Nc1ccccc1NC(=O)c1ccc(CNC(=O)OCc2cccnc2)cc1 [Entinostat, entinostat]
% residual activity ([1]; inhibitor 1 µM, 1 µM): 99% and 99.4% | % residual activity, mean ([1]; inhibitor 1 µM): 99.2% | % residual activity ([1]; inhibitor 10 µM, 10 µM): 106.6% and 100.4% | % residual activity, mean ([1]; inhibitor 10 µM): 103.5% | % residual activity ([2]; inhibitor 1 µM, 1 µM): 101% | % residual activity ([2]; inhibitor 10 µM, 10 µM): 107% | remaining activity at 1 µM ([2]; read-out: % residual activity, PsApaH (4), inhibitor 1 µM, individual replicates): 94.5% | remaining activity at 10 µM ([2]; read-out: % residual activity, PsApaH (4), inhibitor 10 µM, individual replicates): 112% | remaining activity at 1 µM ([2]; read-out: % residual activity, mean, PsApaH (4), inhibitor 1 µM, mean): 97.8% | remaining activity at 10 µM ([2]; read-out: % residual activity, mean, PsApaH (4), inhibitor 10 µM, mean): 110% | % residual activity [3, 8]: 97.9% and 101.5% | % residual activity [3, 9]: 84.8% and 93.1% | % residual activity ([3]; BsAcuC (2c), inhibitor 1 µM, individual replicates, 1 µM): 97.9% and 101.5% | % residual activity, mean ([3]; BsAcuC (2c), inhibitor 1 µM): 99.7% | % residual activity ([3]; BsAcuC (2c), inhibitor 10 µM, individual replicates, 10 µM): 84.8% and 93.1% | % residual activity, mean ([3]; BsAcuC (2c), inhibitor 10 µM): 88.95% | % residual activity ([4]; inhibitor 1 µM, 1 µM): 104% and 99.6% | % residual activity, mean ([4]; inhibitor 1 µM): 101.8% | % residual activity ([4]; inhibitor 10 µM, 10 µM): 103.5% and 100.2% | % residual activity, mean ([4]; inhibitor 10 µM): 101.85% | % residual activity ([5]; inhibitor 1 µM, 1 µM): 98.2% and 100.3% | % residual activity, mean ([5]; inhibitor 1 µM): 99.25% | % residual activity ([5]; inhibitor 10 µM, 10 µM): 107.9% and 99.1% | % residual activity, mean ([5]; inhibitor 10 µM): 103.5% | % residual activity [6, 8]: 102% and 104.4% | % residual activity [6, 9]: 102.7% and 104.2% | % residual activity ([6]; LcApaH (3), inhibitor 1 µM, individual replicates, 1 µM): 102% and 104.4% | % residual activity, mean ([6]; LcApaH (3), inhibitor 1 µM): 103.2% | % residual activity ([6]; LcApaH (3), inhibitor 10 µM, individual replicates, 10 µM): 102.7% and 104.2% | % residual activity, mean ([6]; LcApaH (3), inhibitor 10 µM): 103.45%

CC(/C=C/C(=O)NO)=C\[C@@H](C)C(=O)c1ccc(N(C)C)cc1 [TSA, trichostatin A]
% residual activity ([2]; inhibitor 1 µM): 2.7% | % residual activity, mean ([2]; inhibitor 1 µM): 2.7% | % residual activity ([2]; inhibitor 10 µM, 10 µM): -0.6% and -0.3% | % residual activity, mean ([2]; inhibitor 10 µM): -0.45% | % residual activity, means ([7]; [inhibitor] 1.52e-9 M): 95.45% | % residual activity ([7]; [inhibitor] 1.52e-9 M): 94.9% and 96% | % residual activity, means ([7]; [inhibitor] 4.57e-9 M): 83.2% | % residual activity ([7]; [inhibitor] 4.57e-9 M): 81.8% and 84.6% | % residual activity, means ([7]; [inhibitor] 1.37e-8 M): 59.35% | % residual activity ([7]; [inhibitor] 1.37e-8 M): 56.9% and 61.8% | % residual activity, means ([7]; [inhibitor] 4.12e-8 M): 32.65% | % residual activity ([7]; [inhibitor] 4.12e-8 M): 30.6% and 34.7% | % residual activity, means ([7]; [inhibitor] 1.23e-7 M): 15.2% | % residual activity ([7]; [inhibitor] 1.23e-7 M): 14.4% and 16% | % residual activity, means ([7]; [inhibitor] 3.7e-7 M): 6.2% | % residual activity ([7]; [inhibitor] 3.7e-7 M): 5.6% and 6.8% | % residual activity, means ([7]; [inhibitor] 1.11e-6 M): 2.35% | % residual activity ([7]; [inhibitor] 1.11e-6 M): 2.1% and 2.6% | % residual activity, means ([7]; [inhibitor] 3.33e-6 M): 0.95% | % residual activity ([7]; [inhibitor] 3.33e-6 M): 0.6% and 1.3% | % residual activity, means ([7]; [inhibitor] 1e-5 M): -0.25% | % residual activity ([7]; [inhibitor] 1e-5 M): -0.1% | % residual activity, means ([7]; [inhibitor] 3e-5 M): -1.6% | % residual activity ([7]; [inhibitor] 3e-5 M): -1.8% and -1.4% | remaining activity at 1 µM ([6]; read-out: % residual activity, 1 µM inhibitor, single measurements (two columns), 40 µM LGKac, 60 min, 37 °C): 1.1% | remaining activity at 10 µM ([6]; read-out: % residual activity, 10 µM inhibitor, single measurements (two columns), 40 µM LGKac, 60 min, 37 °C): -0.6% | remaining activity at 1 µM ([6]; read-out: % residual activity, LcApaH (3), inhibitor 1 µM, individual replicates): 1.1% | remaining activity at 10 µM ([6]; read-out: % residual activity, LcApaH (3), inhibitor 10 µM, individual replicates): -0.6% | remaining activity at 10 µM ([6]; read-out: % residual activity, mean, LcApaH (3), inhibitor 10 µM, mean): -0.6%
